Out of some 310,000 compounds screened, about 2,200 (0.71%) showed an effect of 50% or more. The effect is printed as a negative number. This is one part of the list.
target: human ether-à-go-go-related gene (hERG) potassium channel (human, UniProt Q12809); assay: primary screen, population patch clamp on CHO cells stably expressing hERG
Sequence (Q12809 whole entry, looked up): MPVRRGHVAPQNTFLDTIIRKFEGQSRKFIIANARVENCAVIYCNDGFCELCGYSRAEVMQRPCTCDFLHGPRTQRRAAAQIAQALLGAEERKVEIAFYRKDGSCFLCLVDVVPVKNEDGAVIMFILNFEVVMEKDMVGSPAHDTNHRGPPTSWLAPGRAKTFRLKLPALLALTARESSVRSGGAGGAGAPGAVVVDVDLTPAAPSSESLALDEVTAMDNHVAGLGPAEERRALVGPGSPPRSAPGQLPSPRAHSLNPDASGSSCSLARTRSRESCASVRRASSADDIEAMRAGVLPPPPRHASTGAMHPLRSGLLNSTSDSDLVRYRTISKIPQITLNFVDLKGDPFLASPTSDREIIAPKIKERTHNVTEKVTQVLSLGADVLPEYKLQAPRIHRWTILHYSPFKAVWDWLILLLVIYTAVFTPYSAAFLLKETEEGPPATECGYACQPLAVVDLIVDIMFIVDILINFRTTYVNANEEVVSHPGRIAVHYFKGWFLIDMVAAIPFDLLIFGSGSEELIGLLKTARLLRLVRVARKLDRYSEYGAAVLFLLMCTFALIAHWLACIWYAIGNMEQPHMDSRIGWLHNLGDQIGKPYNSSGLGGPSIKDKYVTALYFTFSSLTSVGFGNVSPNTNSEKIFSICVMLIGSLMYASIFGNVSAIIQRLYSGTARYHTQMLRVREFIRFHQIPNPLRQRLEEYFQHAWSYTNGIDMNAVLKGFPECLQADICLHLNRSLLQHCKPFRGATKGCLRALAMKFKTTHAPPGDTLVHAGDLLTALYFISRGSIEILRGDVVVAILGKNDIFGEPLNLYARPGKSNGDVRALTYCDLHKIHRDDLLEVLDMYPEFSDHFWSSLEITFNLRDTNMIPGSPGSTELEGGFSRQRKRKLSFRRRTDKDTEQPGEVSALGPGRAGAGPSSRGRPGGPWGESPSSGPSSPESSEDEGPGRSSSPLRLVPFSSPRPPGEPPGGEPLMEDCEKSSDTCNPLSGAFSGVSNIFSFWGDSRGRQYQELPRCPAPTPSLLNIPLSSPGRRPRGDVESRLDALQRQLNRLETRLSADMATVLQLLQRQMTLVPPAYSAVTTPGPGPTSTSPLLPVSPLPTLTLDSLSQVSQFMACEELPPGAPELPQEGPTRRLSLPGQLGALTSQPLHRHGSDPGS

| Compound | hERG current change (%, negative = inhibition) at 1uM |
| --- | --- |
| O=C(NCC1CCCO1)c1ccc(S(=O)(=O)N2CCC(c3nc4ccc(Cl)cc4[nH]3)CC2)cc1 (stereo not shown) | 5.3% |
| CCOC(=O)C1=C(C)NC(=O)NC1c1ccc([N+](=O)[O-])o1 (stereo not shown) | 9.81% |
| O=C(c1ccc2c(c1)CCN2S(=O)(=O)c1ccccc1)N1CCN(c2ccccc2F)CC1 | 17% |
| Cc1nn(-c2ccccc2)c(C)c1C(=O)N1CCN(S(=O)(=O)c2ccccc2)CC1 | -7.48% |
| O=C(CN1C(=O)S/C(=C/c2ccncc2)C1=O)Nc1ccccc1 | -0.344% |
| O=C1N(S(=O)(=O)c2ccccc2F)C(=O)C2(CCCC2)N1S(=O)(=O)c1ccccc1F | 4.97% |
| COc1cc(-c2nc3ccc(N4CCN(C)CC4)cc3[nH]2)cc(OC)c1OC | 21.3% |
| CC1CCN(C(=O)COC(=O)c2n[nH]c(=O)c3ccccc23)CC1 | 6.07% |
| Cc1cc(C)cc(NC(=O)CN2CCc3ccccc3C2)c1 | 3.26% |
| CC1CCc2nn(CC(=O)NCCCN3CCCC3=O)cc2C1 (stereo not shown) | 9.88% |
| CCOC(=O)Cc1csc(NC(=O)c2ccc(C)c(S(=O)(=O)N3CCOCC3)c2)n1 | -2.74% |
| CC(C)CN(C(=O)/C=C/c1nc2ccccc2s1)C1CCS(=O)(=O)C1 (stereo not shown) | 4.92% |
| FC(F)Oc1cccc(NC(=S)N2CCN(c3ccccn3)CC2)c1 | 4.81% |
| COc1ccc(/C=C/c2noc(-c3ccccc3OC(C)=O)n2)cc1 | 9.08% |
| CCCCNC(=O)N1CCC(CCC(=O)N(C)Cc2ccccc2)CC1 | 7.83% |
| COc1ccc([C@H]2CC(=O)C=C(c3cc(OC)ccc3OC)C2)cc1 | 8.44% |
| Cc1ccc(-c2nc(C=Nc3ccccc3)c(O)o2)cc1 | 11.5% |
| COc1cc(Cl)ccc1OCc1cc(C(=O)N(C)CCc2c(C)n[nH]c2C)no1 | 14.3% |
| Cc1cc(C)c(C#N)c(Nc2ccc3c(c2)OCCO3)n1 | 4.9% |
| COc1ccc(CCNCc2ccc(C)s2)cc1OC.Cl | 4.6% |
| Cc1ccc(N(CC(=O)Nc2ccccc2C(=O)NCc2ccco2)S(=O)(=O)c2ccccc2)cc1C | 13.7% |
| CCN(CC(=O)Nc1cc(Cl)ccc1C)C(=O)CN1C(=O)NC(CC)(c2ccccc2)C1=O (stereo not shown) | 12.4% |

| Compound | hERG current change (%, negative = inhibition) at 1uM |
| --- | --- |
| O=C1NC(CCc2ccccc2)C(=O)N1CCOc1cccc(Br)c1 (stereo not shown) | 7.3% |
| Cc1cc(S(=O)(=O)N2CCc3ccccc3C2)ccc1F | 8.84% |
| Cc1[nH]c2nc3ccccc3n2c(=O)c1CCC(C)C | 16.4% |
| CC(C)CNC(=O)CN1c2cccc3cccc(c23)S1(=O)=O | 7.96% |
| COCC(=O)Nc1c(C(=O)Nc2ccc3c(c2)OCO3)oc2ccccc12 | 5.88% |
| CCOC(=O)c1ccc(NC(=O)N2CCN(C(=O)c3ccco3)CC2)cc1 | 15.1% |
| Cn1c2ccccc2c2cc(/C=N/NC(=O)c3ccc(N)cc3)ccc21 | 11.1% |
| O=C(O)CNS(=O)(=O)c1ccc(F)cc1 | 20.1% |
| COc1ccc(-c2ccc3oc(-c4ccsc4)c(-c4ccc(OC)cc4)c3c2)cc1 | 9.23% |
| Cc1onc(-c2ccccc2)c1C(=O)NC(C)CCc1ccccc1 (stereo not shown) | 13.4% |
| O=C1/C(=C/c2cccnc2)Oc2cc(OS(=O)(=O)c3ccc(F)cc3)ccc21 | -2.14% |
| Cc1ccc(N(C(=O)CNC(=O)c2ccco2)C(C(=O)NCC2CCCO2)c2ccccc2)cc1 (stereo not shown) | -1.46% |
| CCOC(=O)c1cc2c(C)n(-c3ccc(C)cc3)c(C)c2ccc1=O | -13.6% |
| Cc1ccc(-c2nn(CC(=O)NCc3ccco3)c(=O)c3ccccc23)cc1 | 5.08% |
| COC(=O)c1[nH]c2ccc(F)cc2c1NC(=O)Nc1ccc(OC)cc1 | 7.73% |
| CNc1c([N+](=O)[O-])cnn1-c1ccc(Cl)cc1Cl | 1.93% |
| O=C(CSc1nnc(COc2ccc(Cl)cc2)o1)N1CCCCC1 | -5.25% |
| CNC(=O)c1ccsc1NC(=O)CS(=O)(=O)c1ccc(Cl)cc1 | -5.38% |
| Cc1noc(C)c1CN1C(=O)c2cccc([N+](=O)[O-])c2C1=O | 18.8% |
| Cc1ccc(C)c(S(=O)(=O)N2CCN(C(=O)/C=C/c3ccco3)CC2)c1 | 1.6% |
| CCOC(=O)C1=C(C)NC(C)=C(C(=O)OCC)C1/C=C/c1ccccc1OC | 8.28% |
| Cc1nn(-c2ccccc2)c(NC(=O)c2cccs2)c(-c2ccc(Cl)cc2)c1=O | 13.2% |

| Compound | hERG current change (%, negative = inhibition) at 1uM |
| --- | --- |
| CCCCOC(=O)c1ccc(NC(C)=O)cc1 | -6.18% |
| COc1ccc(-n2c(COc3ccccc3)nnc2SCc2ccc(C#N)cc2)cc1 | 2.48% |
| Cc1cccc(C)c1NC(=O)CCCSc1nnc(-c2ccco2)o1 | -10.7% |
| O=c1ccn([C@H]2C[C@H](O)[C@@H](CO)O2)c(=O)[nH]1 | -1.42% |
| Cc1ccc(Cl)cc1N1CCN(C(=O)C(C)n2ncn3cccc3c2=O)CC1 (stereo not shown) | 15.3% |
| C=CCn1c(-c2cccc(OCC)c2)n[nH]c1=S | -5.08% |
| COc1ccc2cc(C(c3nnnn3Cc3ccccc3)N3CCCCCC3)c(=O)[nH]c2c1 (stereo not shown) | -4.41% |
| CC(=O)c1sc2nc(SCC(=O)NCCc3ccccc3)[nH]c(=O)c2c1C | 8.64% |
| CCCC1CC(C(=O)Nc2ccccc2)C(=O)O1 (stereo not shown) | 8.16% |
| CC1CN(C(=O)C2CCCN2S(=O)(=O)c2ccc(Cl)cc2)CC(C)O1 (stereo not shown) | 9.01% |
| Nc1ccccc1-c1nnc(SCc2ccccc2Cl)[nH]c1=O | 8.25% |
| COc1ccc(N(C(=O)CSCC(=O)Nc2cc(C)on2)C(C(=O)NC2CCCCC2)c2ccc(O)c(O)c2)cc1 (stereo not shown) | 12% |
| COc1cc(C(F)(F)F)nc2c(Br)c(C(C)(C)C)nn12 | 13.2% |
| COc1ccc(NC(=O)CSc2nnnn2-c2ccc(OC)cc2)cc1 | 10.2% |
| COc1cc(C(=O)OCC(=O)N2CCC(C)CC2)cc2c1OCCO2 | 11.4% |
| CC1(CCc2ccccc2)NC(=S)N(c2ccc(Cl)cc2)N1 (stereo not shown) | 8.93% |
| COc1ccc(C2(C)NC(=O)N(CC(=O)NC3(C#N)CCCCC3)C2=O)cc1 (stereo not shown) | 8.72% |
| O=C(C[n+]1ccc(-c2ccccc2)cc1)Nc1ccc([N+](=O)[O-])cc1.[Br-] | -2.42% |
| CCc1cc(C(=O)NCC2CCCO2)sc1C (stereo not shown) | 12.9% |
| Cc1cccc2sc(NNC(=O)c3ccc(S(=O)(=O)N4CC(C)CC(C)C4)cc3)nc12 (stereo not shown) | 13.4% |
| CSCCOC(=O)c1[nH]c2c(c1C)C(=O)CC(c1ccco1)C2 (stereo not shown) | 2.07% |
| CCCCN(C)C(=O)c1ccc2c(c1)N(CC)C(=O)c1ccccc1S2=O (stereo not shown) | 11.7% |

| Compound | hERG current change (%, negative = inhibition) at 1uM |
| --- | --- |
| CC1(c2nnc(-c3ccc(Cl)cc3)o2)CC(c2ccncc2)=NO1 (stereo not shown) | 7.93% |
| CCN(CC)CCCN1C=C2C(=O)C(C)(OC(=O)C3CCCC3)C(=O)C(c3ccccc3)=C2C=C1CCCC(=O)OC (stereo not shown) | 14.1% |
| N#CCCN1CCN(C(=S)c2ccc(-c3ccc(Cl)cc3)o2)CC1 | -25.7% |
| C=CCNc1nc2c(c(=O)[nH]c(=O)n2C)n1CCCCC | -3.03% |
| S=C1NC2=C(CCCC2=C2SCCS2)C(c2ccccc2)N1 (stereo not shown) | 11.8% |
| CCCCNc1ccc(C(=O)OCCOCCOCCOCCOCCOCCOCCOCCOCCOC)cc1 | 0.0554% |
| COc1ccc(-c2ccnc3[nH]n(-c4ccccc4)c(=O)c23)cc1 | 11.2% |
| CCOc1ccc(C(=O)NCC(C)CN(C)C)cc1OCC (stereo not shown) | -8.57% |
| Cc1cccc(C)c1OCCOCCN1CCN(C)CC1 | -7.23% |
| Cc1oc(-c2ccccc2F)nc1CN1CCC(C(=O)NC2CCCc3ccccc32)CC1 (stereo not shown) | -11.7% |
| COc1ccc(CN2CCN(CCCCOc3ccc(Cl)cc3)CC2)c(OC)c1OC.O=C(O)C(=O)O | -31.7% |
| O=C(COC(=O)c1cccs1)Nc1ccc(F)c(F)c1 | 10.7% |
| C=CCNC(=O)C(=O)N/N=C/c1ccco1 | 5.31% |
| Fc1ccccc1N1CCN(Cc2cnc(Cl)s2)CC1 | 9.64% |
| CC(=O)c1sc(NC(=O)c2ccc(C)c(C)c2)nc1C | 3.54% |
| Nn1c(SCC(=O)Nc2ccc(S(N)(=O)=O)cc2)nnc1-c1ccco1 | 1.56% |
| Cc1cc(=O)oc2cc(OCC(=O)OCC(=O)NC(=O)NC(C)C)ccc12 | 10.9% |
| CCCCN1C(=O)NC(=O)C2(Cc3c(nc4c(C)cccn4c3=O)N3CCc4ccccc4C32)C1=O (stereo not shown) | -11.8% |
| COc1ccc(OCC(=O)N2CCCC(N3CCN(c4ccccc4C)CC3)C2)cc1 (stereo not shown) | -42.6% |
| COc1nc2ccccc2c(=O)n1OCC(C)C | 7.22% |
| Clc1ccc(/C=C/c2ncc[nH]2)c(Cl)c1 | 5.13% |
| CCN(CC)CCN1C(=O)Cn2c(C)c(C)c3cccc1c32.O=C(O)C(O)C(O)C(=O)O | -56.1% |
